The whole screen tested about 7,900 compounds, of which about 400 (5.1%) showed an effect of 50% or more. The list shows a part of the results.
The compounds below were run against Parkinson's disease protein 7 (PARK7/DJ1) (human, UniProt Q99497) (assay: primary screen, percent inhibition; read as competition with a fluorescent probe by fluorescence polarization; higher = more effect of the substance). Conditions: 100 µM.
Parkinson's disease protein 7 (PARK7/DJ1), sequence (Q99497 whole entry, looked up, the tested form may be a part): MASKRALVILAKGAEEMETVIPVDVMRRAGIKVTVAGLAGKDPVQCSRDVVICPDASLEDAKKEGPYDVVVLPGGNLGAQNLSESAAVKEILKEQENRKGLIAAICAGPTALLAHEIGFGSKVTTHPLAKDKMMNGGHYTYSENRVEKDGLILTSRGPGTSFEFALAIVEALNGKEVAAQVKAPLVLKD
Method in brief: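 Fluorescence-polarization probe displacement (JYQ-107, 20 nM final, 2 h) after 2 h preincubation of PARK7 (0.2 μM final) with each fragment at 100 μM final. Read-out ex/em 480/520 nm; remaining activity derived from FP signal loss relative to reference controls.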
`O=S(=O)(Oc1cn2ccccc2n1)C(F)(F)F` gave an Inhibition % of 14.9%. `Cc1cc(S(=O)(=O)n2ccnc2)c(C)cc1Cl` gave an Inhibition % of 8.92%. Work on `COc1ccccc1B1OC(C)(C)C(C)(C)O1` yielded an Inhibition % of 6.7%. For `C=CC(=O)NC(C)C1CC1(F)F` (stereo not shown), the Inhibition % was 4.36%. `N#Cc1cc(C(N)=O)c[nH]1` was tested, and the Inhibition % was 9.97%. Compound `CCC1SC(=C(C#N)C(N)=O)N(c2ccc(C)cc2)C1=O` (stereo not shown) has an Inhibition % of 2.29%. `Cc1cccc2[nH]cc(C(=O)CCl)c12` showed an Inhibition % of 23.7%. Work on `O=c1c2ccsc2ncn1CCS(=O)(=O)F` yielded an Inhibition % of 19.7%. For `O=C(NCC1CCCC1)n1ccnc1`, the Inhibition % was 40.7%. Work on `O=S(=O)(C=Cc1ccccc1)N1CCOc2ncccc21` yielded an Inhibition % of 38.6%. With `COc1ccc(NC(=O)CCl)c(OC)c1` the Inhibition % was 6.58%. Work on `Cc1ccc(C(C)NC(=O)Cn2cnc(C#N)n2)cc1C` (stereo not shown) yielded an Inhibition % of 3.5%. In the case of `Cn1nc(C(=O)O)cc1C#N`, the Inhibition % is reported as 1.8%. `O=C(O)Cn1c(S)nc2ccccc2c1=O` was tested, and the Inhibition % was -3.22%. With `COc1ccc(C2CCCCCN2C(=O)CCl)cc1` (stereo not shown) the Inhibition % was 8.03%. `C=CC(=O)N1CCC(Cn2cncn2)CC1` showed an Inhibition % of 11.9%. With `CC1(C)CN(c2ccc(C#N)nc2)CC1O` (stereo not shown) the Inhibition % was 5.17%. With `CCN(CC)c1ncc(B2OC(C)(C)C(C)(C)O2)cn1` the Inhibition % was -0.275%. `Cn1cc(C=C2N=C(c3ccc(F)cc3F)OC2=O)cn1` gave an Inhibition % of 4.3%. Compound `N#Cc1ccc(NCCc2ccc(O)cc2)cn1` has an Inhibition % of 7.59%. For `Cc1nc(-c2ccco2)nc(S)c1C(=O)O`, the Inhibition % was 1.46%. `C=CC(=O)N(C)Cc1cc(Cl)cn1C` was tested, and the Inhibition % was 14.2%. `O=C(c1ccccc1)N1CCC(CCl)C1` (stereo not shown) was tested, and the Inhibition % was 2.86%. With `NS(=O)(=O)c1cccc(S(=O)(=O)F)c1` the Inhibition % was 94.3%. `Cc1c(Cl)cccc1NC(=O)CCl` showed an Inhibition % of 11.8%. For `C=CC(=O)N1CCC(c2nc(C)no2)CC1`, the Inhibition % was 6.69%. In the case of `C=CC(=O)NCCC1CCN(C(C)=O)CC1`, the Inhibition % is reported as 5.39%. With `C=CC(=O)Nc1ccc2sncc2c1` the Inhibition % was 97.4%. `O=S(=O)(F)CCSc1nc2ccccc2o1` showed an Inhibition % of 70.3%. Compound `CC1(C)CN(C(=O)c2cccnc2S)CCS1(=O)=O` has an Inhibition % of 4.61%. With `CC(=O)Nc1ccc(OC(=O)N(C)C)cc1` the Inhibition % was 10.8%. `CC1CC(N2CCN(c3cccc(Cl)c3)CC2)C(=O)O1` (stereo not shown) gave an Inhibition % of 4.34%. In the case of `COCCC(Cl)c1ccccc1` (stereo not shown), the Inhibition % is reported as 8.31%. `C=CC(=O)N(c1cccc2cccnc12)C1CCC1` showed an Inhibition % of 13.1%. For `O=C(CCl)Nc1nnc(C2CC2)o1`, the Inhibition % was 2.41%. With `CN(Cc1ccc(Br)cc1)C(=O)CCl` the Inhibition % was 52.8%. `COC[C@@H]1C[C@H](OC)CN1C(=O)c1c[nH]c(C#N)c1` gave an Inhibition % of 1.56%. In the case of `C=CC(=O)NCCc1ccc(-n2cccn2)cc1`, the Inhibition % is reported as 5.22%. `CC(C)CNc1oc(-c2ccccc2)nc1C#N` was tested, and the Inhibition % was 4.63%. With `Cl.O=C(CCl)N1CCN(C2CCS(=O)(=O)C2)CC1` (stereo not shown) the Inhibition % was 11.4%. `CSc1cccc(C#N)n1` showed an Inhibition % of 8.62%. With `CN1CCN(C(=O)CN2CCSC2=O)CC1` the Inhibition % was 10.4%. With `Cc1cc(C(=O)CCl)c(C)n1C1CCS(=O)(=O)C1` (stereo not shown) the Inhibition % was 35.7%. `C=CC(=O)NCc1nc2ccccc2s1` showed an Inhibition % of -0.0503%. Work on `CC1(C)OB(c2ccc3ccoc3c2Cl)OC1(C)C` yielded an Inhibition % of 5.49%. `C=CC(=O)N1CC(c2ccccc2)(C(C)C)C1` was tested, and the Inhibition % was 4%. Compound `N#Cc1cc(O)ncn1` has an Inhibition % of 8.87%. `CN(CC(=O)Nc1c(Cl)cccc1Cl)C(=O)CCl` showed an Inhibition % of 7.36%. In the case of `C=CC(=O)N1CCc2cc(F)ccc2C1`, the Inhibition % is reported as 10.6%. For `O=C(CCl)Nc1cc(Cl)ccc1C(=O)O`, the Inhibition % was 47.9%. `C=CC(=O)Nc1ccccn1` was tested, and the Inhibition % was 3.17%. `C=CC(=O)Nc1cc(C)nn1C1CC2CCC1C2` (stereo not shown) was tested, and the Inhibition % was 6.66%. `C=CC(=O)N[C@@H]1C=C[C@H](CO)C1` was tested, and the Inhibition % was 8.28%. Compound `C1COC(COCC2CO2)C1` (stereo not shown) has an Inhibition % of 10.2%. In the case of `C=CC(=O)N1CC(C)Cc2cc(OC)c(OC)cc2C1C` (stereo not shown), the Inhibition % is reported as 6.08%. `N#CC(=Cc1ccc(O)c(O)c1)c1ccccn1` showed an Inhibition % of 3.18%. Work on `C=CC(=O)N1CCOC(c2ccnn2C)C1` (stereo not shown) yielded an Inhibition % of 3.67%. `N#Cc1nc(NCCc2nccs2)ccc1Cl` showed an Inhibition % of 5.62%. `C=CC(=O)NCC(=O)N1CCCc2ccccc21` was tested, and the Inhibition % was 5.12%. With `Cn1cc(CNS(=O)(=O)C=Cc2ccc(Cl)cc2)cn1` the Inhibition % was 7.5%. In the case of `C=CC(=O)NC1(c2cccc(F)c2)CCOCC1`, the Inhibition % is reported as 10.3%. `CCCC(=O)NCC1CCCN(c2ccnc(C#N)c2)C1` (stereo not shown) was tested, and the Inhibition % was 15.2%. For `C=CC(=O)N1CCOC(Cn2nc(C)cc2C)C1` (stereo not shown), the Inhibition % was 14.2%. Compound `CC(C)OCCn1cnc(C#N)n1` has an Inhibition % of 2.25%. Compound `C=CC(=O)NCc1ccc(CN2CCCCCC2)cc1` has an Inhibition % of 13.2%. `C=CC(=O)Nc1ccc2c(c1)CCNC2=O` gave an Inhibition % of 11.8%. With `C=CC(=O)NC1C2Cc3ccccc3C21` (stereo not shown) the Inhibition % was 11.1%. For `C=CC(=O)NC1CCC(C)(N2CCC2)CC1` (stereo not shown), the Inhibition % was 12.2%. With `C=CC(=O)N1CCC2(C1)CC2(F)F` (stereo not shown) the Inhibition % was 5.02%. For `O=C(O)C1CCN(C(=O)C=Cc2ccc(Cl)s2)CC1`, the Inhibition % was 6.86%. `C=CC(=O)N1CCC(Oc2ccc(C(=O)O)cc2)CC1` showed an Inhibition % of 2.71%. Compound `CCOc1cc(S(=O)(=O)n2nc(C)cc2C)ccc1Cl` has an Inhibition % of -1.43%. In the case of `C=CC(=O)N1CCC(NC(=O)c2cc(C)on2)CC1`, the Inhibition % is reported as 7.51%. `C=CC(=O)N1CCN(CC)C(=O)C1(C)C` gave an Inhibition % of 2.96%. `C=CC(=O)NC1CCCN(c2ccc(F)cc2C)C1` (stereo not shown) was tested, and the Inhibition % was 6.65%. Compound `CC(=O)Nc1ccc(S(=O)(=O)n2cnc(C)c2)cc1` has an Inhibition % of 8.75%. Compound `CC1(C)OB(Cc2cccc(C#N)c2)OC1(C)C` has an Inhibition % of 6.42%. `Cc1cncc(B2OC(C)(C)C(C)(C)O2)c1` showed an Inhibition % of -0.814%. Compound `CCCc1ccc(C(=O)Cn2cnc(C#N)n2)cc1` has an Inhibition % of 5.82%. `Cn1cc(C=CC(=O)N2CCOCC2)c(=O)n(C)c1=O` showed an Inhibition % of -4.33%. `C=CC(=O)N[C@@H]1CC=CC[C@H]1C(F)(F)F` (racemic) showed an Inhibition % of 7.37%. `COc1ccc(Oc2ccc(C#N)nc2)cc1` was tested, and the Inhibition % was 7.28%. In the case of `O=C(CCl)NNC(=O)c1ccc([N+](=O)[O-])cc1`, the Inhibition % is reported as 6.49%. With `C=CC(=O)NC1CCS(=O)(=O)c2ccccc21` (stereo not shown) the Inhibition % was 16%. Work on `Cc1ccc2cc(C=C(C#N)C(N)=O)c(N(C)C)nc2c1` yielded an Inhibition % of 7.3%. In the case of `COc1ccc(N2CCC2=O)cc1`, the Inhibition % is reported as 4.44%. For `O=C1OCCC1N1C(=O)c2ccccc2S1(=O)=O` (stereo not shown), the Inhibition % was 6.02%. `C=CC(=O)N1Cc2cccnc2C1` was tested, and the Inhibition % was 6.55%. Work on `Cc1csc(-n2c(C)cc(C(=O)CCl)c2C)n1` yielded an Inhibition % of 51%. Work on `O=C(CN1C(=O)CCC1=O)Nc1ccc(Cl)cc1Cl` yielded an Inhibition % of -4.28%. `C=CC(=O)NC(=O)NCc1ccccc1` gave an Inhibition % of 10.3%. In the case of `C=CC(=O)NC(c1ccc(F)cc1)c1cnn(C)c1` (stereo not shown), the Inhibition % is reported as 7.71%. `C=CC(=O)N(CC)C1CCCCC1C` (stereo not shown) was tested, and the Inhibition % was 15.8%. With `CC(C1CC1)N(CC(F)(F)F)C(=O)CCl` (stereo not shown) the Inhibition % was 6.2%. For `CC1(C)OB(c2cccc(F)c2C#N)OC1(C)C`, the Inhibition % was 3.89%. In the case of `N#Cc1cccc(N2C[C@@H](C(F)(F)F)[C@H](C(N)=O)C2)n1`, the Inhibition % is reported as 3.22%. Work on `C=CC(=O)N1CCCCC1c1ccc(CC)o1` (stereo not shown) yielded an Inhibition % of 17.6%. With `O=c1c2sccc2nc(S)n1CCCN1CCOCC1` the Inhibition % was 1.46%. `Cc1ccc(Nc2cccc(C#N)n2)nc1` was tested, and the Inhibition % was 3.72%. Compound `CNC(=O)C(C)(C)CNC(=O)c1cccnc1S` has an Inhibition % of 7.07%. Work on `O=S(=O)(F)c1ccc(-n2cccc2)cc1` yielded an Inhibition % of 6.46%. Compound `O=C(CCl)Nc1ccc(Cl)cn1` has an Inhibition % of 11.3%. In the case of `C=CC(=O)Nc1ccc(OC)cc1[N+](=O)[O-]`, the Inhibition % is reported as 4.38%. For `COc1ccc(C(=O)NC(=O)CCl)cc1`, the Inhibition % was 44.6%. `O=S(=O)(C=Cc1ccccc1)NCCc1ccccn1` gave an Inhibition % of 7.09%. `O=c1[nH]c(-c2cccc(S(=O)(=O)F)c2)nc2sc3c(c12)CCC3` was tested, and the Inhibition % was 88.5%. In the case of `COc1c(Cl)cc(Cl)cc1C=C(C#N)C(N)=O`, the Inhibition % is reported as 6.75%. For `CC1CC(N)CCN1C(=O)C=Cc1cc2ccccc2o1` (stereo not shown), the Inhibition % was 2.68%. For `C=CC(=O)N1CCCNC(=O)C1CC(C)C` (stereo not shown), the Inhibition % was 6.41%. `O=C1CCC(=O)N1CCSc1nccn1C1CC1` gave an Inhibition % of 6.45%. In the case of `O=C1OCCC1Sc1nc2ccccc2c(=O)[nH]1` (stereo not shown), the Inhibition % is reported as 4.69%. In the case of `CC1(C)OB(c2cccc(C(F)(F)F)c2O)OC1(C)C`, the Inhibition % is reported as 0.0918%. For `CS(=O)(=O)OCC1CCCN1.Cl` (stereo not shown), the Inhibition % was -4.21%. Compound `C=CC(=O)NCc1nsc2ccccc12` has an Inhibition % of 2.25%. Work on `COc1cc2c(cc1NC(=O)CCl)oc1ccccc12` yielded an Inhibition % of 4.67%. Compound `C=CC(=O)N1CCCC1c1nc(C)cs1` (stereo not shown) has an Inhibition % of 10.9%. For `C=CC(=O)NCC1(c2ccccc2F)CC1`, the Inhibition % was 6.09%. In the case of `C=CC(=O)N1CC(n2cncn2)C1`, the Inhibition % is reported as 1.87%. Work on `C=CC(=O)N(CC)CC(=O)N1CC(C)N(C)CC1C` (stereo not shown) yielded an Inhibition % of 1.97%. `C=CC(=O)N1CCC(C)(c2ccccc2)CC1` was tested, and the Inhibition % was 11.5%. `CC(NC(=O)CCl)c1ccccc1Cl` (stereo not shown) gave an Inhibition % of 11.5%. Compound `N#Cc1nc(C2CC2)oc1N1CCN(C(=O)C2CC2)CC1` has an Inhibition % of 5.36%. In the case of `C1CC2(CCS1)CO2`, the Inhibition % is reported as 3.21%. `C=CC(=O)N(C1CC1)C1CC(=O)NC1=O` (stereo not shown) was tested, and the Inhibition % was 9.14%.

Reference: paper PMC9574860, “Chemical Toolkit for PARK7: Potent, Selective, and High-Throughput” (Journal of Medicinal Chemistry, 2022)
